Laboratory results published in PMC5585049 (Journal of thrombosis and haemostasis : JTH, 2017).

Target: human GPIb-IX complex (human, UniProt P07359 17-652)
Assay: ELISA

B1: shortA1 (recombinant human VWF […]) (domain or fragment)
chain: not shown
modifications: O-glycosylated (2 O-glycans, predominantly disialyl core 1); […] disulfide bond
For B1, the EC50 was about 0.025 µM.
